Test results published in PubChem BioAssay AID651820 (National Center for Advancing Translational Sciences (NCATS), 2012).
Screen size: about 340,000 compounds; about 12,000 (3.5%) were called active. This list was built around the results that the source calls inconclusive (neither active nor inactive); the mix of calls is not that of the screen. Calls come from the whole dose curve; as a rule, active = well fitted inhibition curve with a large enough effect; inconclusive = small, poorly fitted or top-dose-only effect, or another doubt; inactive = no such curve, though single readings can be large or run the other way. No potency is given beside an inconclusive call; the fits are too rough.

Test: qHTS Assay for Inhibitors of Hepatitis C Virus (HCV)
Conditions: Huh7.5.1 HCVcc-Cre (HCVcc is cell-culture hepatitis C virus) infection, luciferase reporter, 44 h; activity change, negative = inhibition: at 41.8 µM (top of the series)
In short: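 After 44 h co-culture of compound, cells and HCVcc-Cre (~0.5 moi), substrate is added for 15 min at room temperature and luciferase measured over 15 sec. Cells were seeded at 1,000/well and pre-cultured 4 h.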
% is set by controls: 0 for no effect and ±100 for the full control effect; potency is the fitted concentration of half-maximal effect; tags give direction and shape of the fitted curve.

Compound	Potency	activity change, negative = inhibition
COc1ccc(Cl)cc1Nc1nc(-c2sc(NC(=O)c3ccco3)nc2C)cs1	active: 2.51 µM	
O=C(c1cccs1)c1coc2ccc(O)c(CN3CCOCC3)c12	inconclusive [inhibitor, single point]	
O=[N+]([O-])c1cccc(/C=C/C=N/Nc2nc(N3CCCCC3)nc(N3CCCCC3)n2)c1	inconclusive [inhibitor, partial curve]	
COCC(=O)Nc1ccc(C(C)C)cc1		inactive: 2.12%
Cc1ccc(NC(=O)C2CCN(C(=O)OC(C)(C)C)CC2)cc1S(=O)(=O)N1CCCCC1	inconclusive [inhibitor, partial curve]	
O=C(NNC(=O)c1ccc(Cl)cc1Cl)Nc1ccccc1		inactive: 9.91%
O=C(Oc1ccc([N+](=O)[O-])cc1)C1CC(=O)N(c2ccc3c(c2)OCCO3)C1 (centres undefined)		inactive: 26.7%
CNC(=S)NN=C(C)CCCC(C)=NNC(=S)NC	inconclusive [inhibitor, partial curve]	
O=C(CCNS(=O)(=O)c1ccc(Br)cc1)N1CCN(c2ccccc2O)CC1	inconclusive [inhibitor, partial curve]	
Cc1ccccc1NC(=O)C(C)c1ccc(-c2ccccc2)c(F)c1 (centres undefined)	inconclusive [inhibitor, full curve, poor fit]	
Cc1ccc(C)c(S(=O)(=O)N2CCN(C(=O)c3cc(S(=O)(=O)NCc4ccccc4)ccc3C)CC2)c1	inconclusive [inhibitor, single point]	
CC(=O)N1CCN(c2ccccc2NC(=O)COc2cc(C)cc(C)c2)CC1	inconclusive [inhibitor, partial curve]	
CCOc1ccc(/C=N/Nc2ccc(C(F)(F)F)cc2[N+](=O)[O-])cc1O	inconclusive [inhibitor, single point]	
CC(=O)Nc1ccc(NC(=O)COC(=O)c2cc([N+](=O)[O-])ccc2N2CCOCC2)cc1		inactive: -4.46%
CCOC(=O)N1CCC(NS(=O)(=O)c2ccc(NC(C)=O)c(Cl)c2)CC1	active: 6.31 µM	
COc1ccc(/C=C2\CCCC3C2=NN(C(=O)c2scnc2C)C3c2ccc(OC)cc2)cc1 (centres undefined)	inconclusive [inhibitor, single point]	
O=C1c2cccc3cccc(c23)C(=O)N1c1ccncc1	inconclusive [inhibitor, partial curve]	
COc1ccc(CCNc2cc(C)nc3c(-c4ccc(Cl)cc4)c(C)nn23)cc1OC	inconclusive [inhibitor, full curve, poor fit]	
N#CC(c1ccccc1O)N1N=C(c2ccccc2)CC1c1ccccc1 (centres undefined)	inconclusive [inhibitor, single point]	
COc1ccc(C(=O)N=c2sc3c(C)ccc(OC)c3n2C)cc1	inconclusive [inhibitor, full curve, poor fit]	
CCN1C(=O)C(O)(CC(=O)/C=C/C=C/c2ccccc2)c2ccccc21 (centres undefined)		inactive: -14.1%
Cc1ccc(NC(=O)c2ccco2)c(NC(=O)c2cccs2)c1	active: 11.2 µM	
N#C/C(=C/c1cn(-c2ccccc2)nc1-c1cccc(OCc2ccccc2)c1)C(=O)NCCCn1ccnc1	inconclusive [inhibitor, full curve, poor fit]	

Compound	Potency	activity change, negative = inhibition
O=C(N/N=C/c1ccccc1)c1cc[n+]([O-])cc1		inactive: 5.63%
COCCCn1c(SCC(=O)O)nc2cc(OC)c(OC)cc2c1=N	inconclusive [inhibitor, single point]	
CCc1c(C)nc(SC)n(CC#N)c1=O		inactive: 7.43%
CC(=O)NCCn1c(SCC(=O)NC2CCCCC2)nc2ccccc2c1=O		inactive: 5.16%
O=C(NCC(c1ccco1)N1CCCCC1)c1ccc2c(c1)S(=O)(=O)c1ccccc1C2=O (centres undefined)	inconclusive [inhibitor, single point]	
O=C(Nc1cccc(F)c1)c1c(F)c(F)c(F)c(F)c1F	inconclusive [inhibitor, single point]	
Cc1cc(C)n(-c2nnc(SCC(=O)NC3CCCC3)c3ccccc23)n1	inconclusive [inhibitor, partial curve]	
CC(C)S(=O)(=O)c1csc(C(=O)Nc2ccc(F)cc2)c1N	active: 3.16 µM	
Cn1ccc(NC(=O)CCl)n1	inconclusive [inhibitor, single point]	
CC1(C)C=Cc2cc(-c3coc4cc(O)cc(O)c4c3=O)cc(O)c2O1	active: 11.2 µM	
O=C(O)CN1C(=O)/C(=C/c2ccc(SCc3ccccc3)o2)SC1=S		inactive: 27%
CCN(CC(=O)Nc1cc(Cl)ccc1C)C(=O)C1COc2ccccc2O1 (centres undefined)		inactive: -7.1%
O=C1c2ccccc2C(=O)N1CCCCSc1nnc(-c2ccc(OC(F)F)cc2)o1	inconclusive [inhibitor, single point]	
CCN(CC)c1ccc(/C=N/N=C(c2ccccc2)c2ccccc2)c(O)c1	inconclusive [inhibitor, partial curve]	
c1ccc(-c2n[nH]c(-c3ccccn3)n2)nc1	inactive	
CCOC(=O)c1oc2ccc(Br)cc2c1NC(=O)CN1CCN(C)CC1	active: 10 µM	
O=C(O)C(Nc1nc(C(F)(F)F)nc2ccccc12)c1ccccc1 (centres undefined)		inactive: 3.09%
COc1ccc(OCC(=O)N2CCCC(N3CCN(c4ccccc4C)CC3)C2)cc1 (centres undefined)	inconclusive [inhibitor, single point]	
O=C(Cn1nc(-c2ccccc2Cl)ccc1=O)Nc1ccccc1-c1ccccc1	inconclusive [inhibitor, single point]	
COc1ccc(CN2C(=O)C(CC(C)C)Nc3ncnc(N4CCN(c5ccccc5)CC4)c32)cc1 (centres undefined)	inconclusive [inhibitor, single point]	
Cn1c(=O)c2c(nc(N/N=C/c3ccc(OC(=O)c4ccco4)cc3)n2Cc2ccccc2Cl)n(C)c1=O	inconclusive [inhibitor, full curve]	
Cc1nc(SCC(=O)c2ccccc2)n[nH]1		inactive: 0.941%
Cc1ccc(NC(=O)Cn2cccc2)cc1C		inactive: -28.5%

Compound	Potency	activity change, negative = inhibition
O=C(Nc1ccc(OC(F)(F)F)cc1)c1ccc(-n2cncn2)nc1	inconclusive [inhibitor, full curve]	
COc1ccccc1N(CC(=O)N/N=C/c1ccc(OCC(=O)NCc2ccco2)cc1)S(=O)(=O)c1ccc(C)cc1	active: 5.01 µM	
CCOc1cc(/C=C2\SC(=NC)N(C)C2=O)cc(Cl)c1OC(C)=O	inconclusive [inhibitor, partial curve]	
CCOc1cc(NC(=O)c2ccccn2)c(OCC)cc1NC(=O)CC(C)C	inconclusive [inhibitor, single point]	
CC(NC(=O)Nc1ccc([N+](=O)[O-])cc1)C(c1cccs1)N1CCCC1 (centres undefined)		inactive: 1.51%
COc1ccc(S(=O)(=O)Cc2ccc(C(=O)N3CCN(c4ccccn4)CC3)o2)cc1	inconclusive [inhibitor, single point]	
N/C(=N\OC(=O)/C=C/c1ccccc1)c1ccccc1	inconclusive [inhibitor, partial curve]	
O=Cc1ccc(Oc2cc(-c3ccccc3)nc(-c3ccccc3)n2)cc1	inconclusive [inhibitor, single point]	
Cc1cc(OC(=O)CCNC(=O)OC(C)(C)C)c2c3c(c(=O)oc2c1)CCC3	inconclusive [inhibitor, partial curve, poor fit]	
Cc1oncc1-c1csc(-c2ccccc2Cl)n1	inconclusive [inhibitor, single point]	
CCOC(=O)c1c(NC(=O)COC(=O)c2nccnc2N)sc(C(=O)N(C)C)c1C	inconclusive [inhibitor, single point]	
Cc1ccc(S(=O)(=O)N2CCOCC2)cc1NC(=O)CNCc1ccccc1Cl		inactive: -15.3%
O=C(Cn1cc(COc2ccc(Br)cc2)nn1)c1ccc(O)cc1	inconclusive [inhibitor, full curve]	
CC(=O)NC(c1ccc(C(C)C)cc1)c1ccc2cccnc2c1O (centres undefined)	active: 8.91 µM	
CS(=O)(=O)c1nc([N+](=O)[O-])nn1CCCc1ccccc1	inconclusive [inhibitor, single point]	
COc1ccc(-c2nnn(CC(=O)c3ccc4c(c3)OCCO4)n2)cc1OC	inconclusive [inhibitor, partial curve]	
CC1CCCCC1N(C)C1CCN(C(=O)CNC(=O)/C=C/c2cccc(Cl)c2)CC1 (centres undefined)	inconclusive [inhibitor, partial curve]	
O=C(N/N=C/c1cn(-c2ccccc2)nc1-c1cc2ccccc2o1)c1ccncc1	inconclusive [inhibitor, single point]	
CN(CC(=O)Nc1c(Cl)cccc1Cl)C(=O)c1cc(-c2cccs2)nn1-c1ccccc1	inconclusive [inhibitor, full curve]	
CN(C)c1ccc(/C=c2\sc3n(c2=O)CCCN=3)cc1	inconclusive [inhibitor, partial curve]	
CC(C)OC(=O)c1cc2c(ccn2C)n1CC(=O)N(Cc1ccccc1)c1ccc(F)cc1	inconclusive [inhibitor, single point]	
CCCCN(Cc1nc2ccccc2c(=O)[nH]1)C(=O)c1nn(C)c(=O)c2ccccc12	inconclusive [inhibitor, single point]	
COC(=O)c1sc(NC(=O)CSc2nc3cccnc3n2C2CCCCC2)nc1C	inconclusive [inhibitor, single point]	
